Out of some 310,000 compounds screened, about 2,200 (0.71%) showed an effect of 50% or more. The effect is printed as a negative number. Some of the results follow.

human ether-à-go-go-related gene (hERG) potassium channel, sequence (Q12809 whole entry, looked up): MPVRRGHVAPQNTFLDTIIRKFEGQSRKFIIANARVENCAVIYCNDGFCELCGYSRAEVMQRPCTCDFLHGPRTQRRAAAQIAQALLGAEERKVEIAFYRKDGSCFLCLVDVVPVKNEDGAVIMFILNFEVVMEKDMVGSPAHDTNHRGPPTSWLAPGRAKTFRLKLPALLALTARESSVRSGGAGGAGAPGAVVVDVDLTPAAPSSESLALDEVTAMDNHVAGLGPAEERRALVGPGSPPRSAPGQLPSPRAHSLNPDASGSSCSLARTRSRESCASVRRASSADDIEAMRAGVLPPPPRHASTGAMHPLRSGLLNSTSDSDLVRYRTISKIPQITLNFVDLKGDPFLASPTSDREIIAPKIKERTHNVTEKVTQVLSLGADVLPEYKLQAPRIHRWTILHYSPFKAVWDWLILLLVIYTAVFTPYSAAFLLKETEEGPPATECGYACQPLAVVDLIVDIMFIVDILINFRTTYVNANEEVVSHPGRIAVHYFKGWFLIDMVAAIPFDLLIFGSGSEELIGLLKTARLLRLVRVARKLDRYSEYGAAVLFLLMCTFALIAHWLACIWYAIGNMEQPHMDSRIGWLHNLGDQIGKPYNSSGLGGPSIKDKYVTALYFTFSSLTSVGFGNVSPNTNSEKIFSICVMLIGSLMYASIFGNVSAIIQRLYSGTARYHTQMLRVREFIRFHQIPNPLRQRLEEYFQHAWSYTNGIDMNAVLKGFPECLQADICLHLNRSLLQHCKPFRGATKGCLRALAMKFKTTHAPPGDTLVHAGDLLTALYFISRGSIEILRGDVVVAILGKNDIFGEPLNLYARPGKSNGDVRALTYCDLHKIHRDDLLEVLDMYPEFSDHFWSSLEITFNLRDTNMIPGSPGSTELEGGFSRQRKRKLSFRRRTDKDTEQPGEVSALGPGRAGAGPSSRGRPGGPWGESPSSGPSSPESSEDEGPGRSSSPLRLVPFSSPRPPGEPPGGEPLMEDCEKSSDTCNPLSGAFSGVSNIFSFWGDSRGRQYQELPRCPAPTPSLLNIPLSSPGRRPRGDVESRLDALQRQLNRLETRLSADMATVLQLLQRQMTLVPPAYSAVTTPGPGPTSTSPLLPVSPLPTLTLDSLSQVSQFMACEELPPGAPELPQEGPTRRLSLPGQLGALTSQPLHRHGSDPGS

This assay addresses human ether-à-go-go-related gene (hERG) potassium channel (human, UniProt Q12809). The assay can be described thus: primary screen, population patch clamp on CHO cells stably expressing hERG.
As for `CCOC(=O)C1=C(COC(=O)[C@@H]2CCCN2S(=O)(=O)c2ccc(C)cc2)NC(=O)NC1C` (some centres unmarked), the “hERG current change (%, negative = inhibition) at 1uM” value was found to be 10.5%.
On to `CC(C)C(NC(=O)c1ccc(F)cc1)C(=O)NCC1CCCO1` (centres unmarked), for which the “hERG current change (%, negative = inhibition) at 1uM” value came out at 13.3%.
Regarding `NC(N)=NC(=O)c1nc(Cl)c(N2CCCCCC2)nc1N`, the “hERG current change (%, negative = inhibition) at 1uM” value is -11.6%.
For `CCOC(=O)c1cc(-c2cccnc2)nn1-c1ccccc1C` the value was 7.62%.
Consider `CCOc1ccc(C(=O)OCC(=O)Nc2ccc3c(c2)OCCO3)cc1OC`, for which the “hERG current change (%, negative = inhibition) at 1uM” value is 7.31%.
For `COc1ccccc1N1C(=O)C2C(C(=O)c3ccccc3)=NN(c3ccc(C)cc3)C2C1=O` (centres unmarked) the value was -6.99%; for `CCCS(=O)(=O)N1CCN(C(=O)c2ccc(-c3ccccc3)cc2)CC1`, -7.86%; for `COc1cccc(CN(C)Cc2nc3cc(C(F)(F)F)ccc3c(=O)[nH]2)c1`, 11.6%.
Take `CC(NS(=O)(=O)c1ccc2c(c1)OCCCO2)C(=O)O` (centres unmarked): the “hERG current change (%, negative = inhibition) at 1uM” value is 12.7%.
In the case of `CCOc1ccc(S(=O)(=O)N(CC)CC(=O)NC2CCS(=O)(=O)C2)cc1` (centres unmarked), the “hERG current change (%, negative = inhibition) at 1uM” value came to 7.79%.
Regarding `CCCCn1c(=O)c(C(=O)Nc2ccccc2C)c(O)c2ccccc21`, the “hERG current change (%, negative = inhibition) at 1uM” value is recorded as 16.2%.
For `CCCN(CCC)S(=O)(=O)c1ccc(C(=O)N2CCC(=O)c3ccccc32)cc1` the value was 16.9%; for `COC(=O)c1cnc(N2CCCN(S(=O)(=O)c3ccccc3)CC2)nc1C(F)(F)F`, 10.6%; for `O=C(C1CC1)N1CCc2cc(S(=O)(=O)N3CCCc4ccccc43)ccc21`, 11.2%.
Turning to `COc1ccc(S(=O)(=O)N(CC(=O)NCc2cccnc2)Cc2ccccc2)cc1`, the “hERG current change (%, negative = inhibition) at 1uM” value is on record as -51.2%.
`N#Cc1c(F)cccc1NCc1cccnc1`: the “hERG current change (%, negative = inhibition) at 1uM” value was found to be 7.83%.
For `COc1ccc(/C=N\NC(=O)c2sc(N)nc2C)cc1OC` the value was 8.97%.
The result for `COc1ccc(-c2csc(NC(=O)c3cccc(N4C(=O)CCC4=O)c3)n2)cc1OC` reads 11.1%.
For `COc1ccc(/C=N/NC(=O)Cn2cnc3ccccc3c2=O)cc1OC` the value was 0.936%; for `CN(C(=O)Nc1ccccc1)C1CCCc2ccccc21` (centres unmarked), 10.9%; for `CCOC(=O)CN=C/C(C(=O)Nc1nccs1)=C(/C)O`, 17.5%.
With `O=C(Nc1ccc(F)cc1)NC1CCN(Cc2c(F)cccc2Cl)CC1`, the “hERG current change (%, negative = inhibition) at 1uM” value came out at 6.95%.
For `CC(=O)Nc1ccc(N2CCC(C)CC2)c([N+](=O)[O-])c1` the value was 7.46%.
The result for `Cc1ccccc1CCNC(=O)C1CCC(=O)N(C2CCCCCC2)C1` (centres unmarked) reads 7.2%.
The result for `COc1cc(NC(=O)c2ccc(COCC(F)(F)F)o2)cc(OC)c1OC` reads -0.535%; that for `CCOc1cc(/C=C/C(=O)c2ccc3c(c2)OCCO3)ccc1OCC(=O)N(C)C`, 15%; that for `Cc1c(C(=O)NCc2ccccn2)oc2ccc(S(=O)(=O)N3CCC4(CC3)OCCO4)cc12`, 2.47%.
As for `Cc1ccc(NC(=S)NC2CCSc3ccccc32)cc1` (centres unmarked), the “hERG current change (%, negative = inhibition) at 1uM” value turned out to be 12.3%.
For `COc1ccc(C(=O)O/N=C(\N)Cc2ccc(Cl)c(Cl)c2)cc1OC` the value was 9.39%; for `CC(C)(C)C(=O)Cn1c(=O)n(-c2ccc(F)cc2F)c(=O)c2sccc21`, 13.9%.
The result for `Cc1cccc(C)c1OCc1nnc(SCC(=O)Nc2nccs2)o1` reads -2.37%; that for `Cc1ccc(C(=O)NCCC2=CCCCC2)cc1S(=O)(=O)N1CCOCC1`, 12.3%; that for `CC(CCO)Nc1nc2c([nH]1)c(=O)n(C)c(=O)n2C` (centres unmarked), 13.4%.
`COc1ccc(C2=NN(C(=O)c3cccnc3)C(c3ccccc3)C2)cc1` (centres unmarked): the “hERG current change (%, negative = inhibition) at 1uM” value is listed as 7.81%.
For `COc1ccc(OC)c(C(=O)NC2CC(C)(C)Cc3c2cnn3-c2ccccc2)c1` (centres unmarked) the value was 10.9%.
The result for `O=C(CCCOc1ccc(Cl)cc1Cl)N/N=C/c1ccco1` reads 6.7%.
The result for `Cc1cc(C)n(-c2nc3c(c(=O)[nH]c(=O)n3C)n2C(C)C)n1` reads 17.5%; that for `O=C(N/N=C/c1ccccc1)c1ccc(-c2ccccc2)cc1`, 18.7%.
Regarding `Cc1cc(NC(=O)/C=C/c2ccc(Cl)cc2)no1`, the “hERG current change (%, negative = inhibition) at 1uM” value turned out to be 11.3%.
The result for `Cc1ccc(NC(=O)c2cncc(Br)c2)c([N+](=O)[O-])c1` reads 1.51%; that for `O=C(CN(c1ccc(F)cc1)S(=O)(=O)c1ccc2c(c1)OCCO2)NCc1ccccc1`, 6.06%.
The result for `COc1ccc(NC2CCCN(Cc3cccc4cnccc34)C2)cc1OC` (centres unmarked) reads 5.29%.
For `COc1cc(OCC(N)=O)cc(OC)c1OC` the value was 7.48%.
Take `O=C([O-])c1ccc(-n2nc(C(F)(F)F)cc2-c2cccs2)cc1.[Na+]`: the “hERG current change (%, negative = inhibition) at 1uM” value came to 10.3%.
The result for `O=C(Cn1c(=O)c(=O)n(Cc2ccccc2)c2ccc(Cl)cc21)Nc1ccc(F)cc1F` reads 13.1%; that for `CCCC(=O)NC(C)c1nc2ccccc2n1C` (centres unmarked), 7.33%; that for `COc1cccc(Cn2cccc(NC(=O)Nc3ccc(C#N)cc3)c2=O)c1`, 6.91%.
Regarding `CCCCNC(=O)C1CCN(c2nc(C)cc(C)n2)CC1`, the “hERG current change (%, negative = inhibition) at 1uM” value is 14.5%.
The result for `CCOC(=O)CN(C(=O)CSc1nnc(Cc2ccccc2)n1-c1ccc(C)cc1)c1ccccc1` reads -1.66%.
Regarding `Cc1c(C(=O)NCCNc2ncc(C(F)(F)F)cc2Cl)cccc1[N+](=O)[O-]`, the “hERG current change (%, negative = inhibition) at 1uM” value is listed as 9.16%.
The result for `c1ccc2c(-n3cnnn3)cccc2c1` reads 5.26%; that for `CCCCCOC(=O)Cc1c(O)c2ccccc2[nH]c1=O`, 15.9%.
For `COc1cc(/C=C2\SC(=S)N(CC(=O)O)C2=O)ccc1OC(=O)c1ccco1` the value was 1.93%; for `c1csc(-n2nc3ccccc3n2)c1`, -1.06%; for `O=c1c2ccccc2nc(CSc2ncnc3nc[nH]c23)n1-c1ccccc1Cl`, 14.5%.
As to `CC1=NN(C(=O)c2cc(C)nn2C)C(O)(C(F)(F)F)C1` (centres unmarked), the “hERG current change (%, negative = inhibition) at 1uM” value worked out at 16.7%.
For `COc1ccc(-c2nnc(SCc3ncc(-c4ccccc4)o3)o2)cc1` the value was 9.13%; for `COC(=O)c1sc(C(C)(C)C)cc1CS(=O)(=O)c1ccccn1`, 11.7%.
For `CCOC(=O)C(N)CSC1CC(=O)N(c2ccc(C(=O)OC)cc2)C1=O` (centres unmarked) the value was 10.2%; for `Cc1nnc(N/N=C/c2c[nH]c3ccccc23)[nH]c1=O`, 5.73%.
The result for `NC(=O)NC(=O)COC(=O)c1cccc(NS(=O)(=O)/C=C/c2ccccc2)c1` reads 2.21%; that for `CC1=NN(C(=O)c2ccccc2F)C(O)(c2ccc(Cl)cc2)C1` (centres unmarked), 12.6%; that for `Cc1ccccc1C(=O)NNC(=O)/C=C\C(=O)O`, -10.7%.
Regarding `O=C(Nc1ccccc1F)c1coc(=O)c(Br)c1`, the “hERG current change (%, negative = inhibition) at 1uM” value is 3.91%.
For `Cc1ccc(-n2sc3ccccc3c2=O)cc1` the value was 19.3%; for `CCCN1CNC(=S)N(c2cc(C)ccc2C)C1`, -0.38%; for `COc1ccc(-c2[nH]nc3oc(=O)cc(C)c23)cc1`, 7.06%.
On to `CC(=O)Nc1ccc(S(=O)(=O)N2CCC(C(=O)N[C@@H](C)C(=O)NC3CCCC3)CC2)cc1`, for which the “hERG current change (%, negative = inhibition) at 1uM” value stood at 26.7%.
For `CC(C)NC(=O)c1ccccc1S(=O)c1ccccc1C#N` (centres unmarked) the value was 9.68%; for `COC(=O)c1ccc(C2c3c(oc4ccc(Cl)cc4c3=O)C(=O)N2CCN2CCOCC2)cc1` (centres unmarked), -0.385%; for `CC[n+]1c(SC)ccc2cc(OC)ccc21.[O-][Cl+3]([O-])([O-])[O-]`, 5.74%.
In the case of `CCOC(=O)Nc1ccc2c(c1)nc(CN1CCN(C(C)=O)CC1)n2C`, the “hERG current change (%, negative = inhibition) at 1uM” value is given as 9.62%.
The result for `C#CCNC(=O)C1=C[C@H](c2csc3ccccc23)[C@@H](CCCO)[C@H](OCC)O1` reads 10%; that for `COc1ccccc1N1CCN(C(=O)CCNS(=O)(=O)c2cc(Br)cnc2N)CC1`, 8.39%; that for `CC(=O)Nc1cccc2c1C(=O)N(c1cccc(OC(C)=O)c1)C2=O`, 11%.
In the case of `O=C(O)CCCC(=O)Nc1cc([N+](=O)[O-])ccc1O`, the “hERG current change (%, negative = inhibition) at 1uM” value stood at 5.64%.
The result for `COc1ccccc1OCCNC(=O)c1cccc(S(=O)(=O)N2CC(C)OC(C)C2)c1` (centres unmarked) reads 6.51%; that for `COc1ccc(C2C(C(=O)NCc3ccco3)c3ccccc3C(=O)N2C)cc1` (centres unmarked), 7.97%.
With `CCn1c(C)cc2c(c1=O)C(c1ccncc1)C(C#N)=C(N)O2` (centres unmarked), the “hERG current change (%, negative = inhibition) at 1uM” value was determined as 11.5%.
The result for `COc1cc(NC(=S)NC(=O)CCc2ccccc2)cc(OC)c1` reads 5.06%; that for `CCOC(=O)c1ccc(N2C(=O)C(O)=C(C(C)=O)C2c2ccc(O)c(OC)c2)cc1` (centres unmarked), 5.35%; that for `Cc1cc(N2CCN(C)CC2)nc2ccc(NC(=S)NC3CC3)cc12`, 6.33%.
The result for `O=C(CN1CCCC1)NC(c1ccccc1)c1ccccc1.O=C(O)C(=O)O` reads 2.57%; that for `COc1ccc(Br)cc1/C=N/n1nnnc1N`, 9%; that for `O=c1[nH]c(CN2CCCCC2)nc2c1C1(CCCCC1)Cc1ccccc1-2`, 5.97%.
For `C=CCn1c(SCc2nc(N)nc(N3CCCCC3)n2)nnc1-c1ccco1` the value was 0.431%; for `OCC#CC[N+]1(CC#Cc2ccccc2)CCCC1.[Br-]`, 12.2%; for `CC(C)CCNC(=O)c1onc(CSc2ccncc2)c1C(=O)NCCC(C)C`, 2.53%.
As to `Cc1ccc(SC(C)C(=O)Nc2cccnc2)cc1` (centres unmarked), the “hERG current change (%, negative = inhibition) at 1uM” value was 8.26%.

The values above are taken from paper PMC4336329 (PLoS ONE, 2015).
